# Laboratory results as given in the supplement of paper PMC10037445.
# In all, about 2,900 compounds were measured (“NF-kB SEAP reporter activity, fold change vs agonist alone”: median about 0.99, highest 2% from about 2.6 on). The list shows a part of the results.
# Key:
# RAW-Dual [1] = assay: NF-kB SEAP reporter activity, fold change vs agonist alone; higher = enhanced NF-kB activity
# In short: (§1)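 RAW-Dual macrophages (50,000 cells/well in DMEM, 384-well plates) received 50 nL of library stock by pin tool, then a PRR agonist 1 h later, and were kept at 37 °C, 5% CO2. After 20 hours, supernatant was read for IRF by QuantiLuc luminescence and for NF-κB by QuantiBlue absorbance at 620 nm. Reporter activity is fold change over agonist-alone wells. Cytotoxic wells had IncuCyte confluency below 70% of agonist controls in both mask sets.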
# RAW-Dual [2] = assay: NF-kB SEAP reporter activity, fold change vs agonist alone; cytotoxicity flag (confluency mask): not cytotoxic; higher = enhanced NF-kB activity
# In short: as §1
# RAW-Dual [3] = assay: NF-kB SEAP reporter activity, fold change vs agonist alone; cytotoxicity flag (confluency mask): cytotoxic (confluency <70% of control); higher = enhanced NF-kB activity
# In short: as §1
# [4] = agonist: ODN 1826 (TLR9) 0.5 ug/mL
# [5] = agonist: Pam2CSK4 (TLR2/6) 0.1 ug/mL
# [6] = agonist: Pam3CSK4 (TLR2/1) 0.1 ug/mL
# [7] = library stock concentration (final ~1000-fold dilution): 10 mM, cytotoxicity flag (confluency mask): not cytotoxic, agonist: Imiquimod (TLR7) […]
# [8] = library stock concentration (final ~1000-fold dilution): 10 mM, cytotoxicity flag (confluency mask): not cytotoxic, agonist: MPLA (TLR4) […]
# [9] = library stock concentration (final ~1000-fold dilution): 10 mM, cytotoxicity flag (confluency mask): cytotoxic (confluency <70% of control), agonist: Imiquimod (TLR7) […]
# [10] = library stock concentration (final ~1000-fold dilution): 10 mM, cytotoxicity flag (confluency mask): cytotoxic (confluency <70% of control), agonist: MPLA (TLR4) […]
compound,measurement,setting,value
CN(C)C1CCN(C(=O)c2ccc(NC(=O)Nc3ccc(-c4nc(N5CCOCC5)nc(N5CCOCC5)n4)cc3)cc2)CC1,NF-kB SEAP reporter activity,"RAW-Dual [1]; library stock concentration (final ~1000-fold dilution): 2 mM, cytotoxicity flag (confluency mask): not cytotoxic, agonist: Imiquimod (TLR7) […]",0.647
same,NF-kB SEAP reporter activity,"RAW-Dual [1]; library stock concentration (final ~1000-fold dilution): 2 mM, cytotoxicity flag (confluency mask): not cytotoxic, agonist: MPLA (TLR4) […]",1.52
CN(C)C1CCN(C(=O)c2ccc(NC(=O)Nc3ccc(-c4nc(N5CCOCC5)nc(N5CCOCC5)n4)cc3)cc2)CC1 (library stock concentration (final ~1000-fold dilution): 2 mM),NF-kB SEAP reporter activity,RAW-Dual [2]; agonist: LPS (TLR4) 0.1 ug/mL,1.19
same,NF-kB SEAP reporter activity,RAW-Dual [2]; [4],0.965
same,NF-kB SEAP reporter activity,RAW-Dual [2]; [5],0.404
same,NF-kB SEAP reporter activity,RAW-Dual [2]; [6],0.679
Cc1ccc(Nc2cc(NC3CCCCC3N)nnc2C(N)=O)nc1C (configuration not stated) (library stock concentration (final ~1000-fold dilution): 10 mM),NF-kB SEAP reporter activity,RAW-Dual [2]; agonist: LPS (TLR4) 0.1 ug/mL,1.51
same,NF-kB SEAP reporter activity,RAW-Dual [2]; [4],0.188
same,NF-kB SEAP reporter activity,RAW-Dual [2]; [5],1.08
same,NF-kB SEAP reporter activity,RAW-Dual [2]; [6],1.29
Cc1ccc(Nc2cc(NC3CCCCC3N)nnc2C(N)=O)nc1C (configuration not stated),NF-kB SEAP reporter activity,RAW-Dual [1]; [7],1.36
same,NF-kB SEAP reporter activity,RAW-Dual [1]; [8],2.35
CCOC(=O)c1ccc(N)cc1.Cl (library stock concentration (final ~1000-fold dilution): 10 mM),NF-kB SEAP reporter activity,RAW-Dual [2]; agonist: LPS (TLR4) 0.1 ug/mL,1.21
same,NF-kB SEAP reporter activity,RAW-Dual [2]; [4],0.914
same,NF-kB SEAP reporter activity,RAW-Dual [2]; [5],1.17
same,NF-kB SEAP reporter activity,RAW-Dual [2]; [6],0.909
CCOC(=O)c1ccc(N)cc1.Cl,NF-kB SEAP reporter activity,RAW-Dual [1]; [8],1.12
CC(C)[N+]1(C)C2CCC1CC(OC(=O)C(CO)c1ccccc1)C2 (configuration not stated),NF-kB SEAP reporter activity,RAW-Dual [1]; [7],0.881
same,NF-kB SEAP reporter activity,RAW-Dual [1]; [8],1.04
CC(C)[N+]1(C)C2CCC1CC(OC(=O)C(CO)c1ccccc1)C2 (configuration not stated) (library stock concentration (final ~1000-fold dilution): 10 mM),NF-kB SEAP reporter activity,RAW-Dual [2]; agonist: LPS (TLR4) 0.1 ug/mL,0.97
same,NF-kB SEAP reporter activity,RAW-Dual [2]; [4],1.02
same,NF-kB SEAP reporter activity,RAW-Dual [2]; [5],1.05
same,NF-kB SEAP reporter activity,RAW-Dual [2]; [6],1.16
C=CC(=O)N1CC/C(=C\c2ccc(F)c([N+](=O)[O-])c2)C(=O)/C(=C/c2ccc(F)c([N+](=O)[O-])c2)C1,NF-kB SEAP reporter activity,RAW-Dual [1]; [7],0.151
same,NF-kB SEAP reporter activity,RAW-Dual [1]; [8],0.267
C=CC(=O)N1CC/C(=C\c2ccc(F)c([N+](=O)[O-])c2)C(=O)/C(=C/c2ccc(F)c([N+](=O)[O-])c2)C1 (library stock concentration (final ~1000-fold dilution): 10 mM),NF-kB SEAP reporter activity,RAW-Dual [2]; agonist: LPS (TLR4) 0.1 ug/mL,0.222
same,NF-kB SEAP reporter activity,RAW-Dual [2]; [4],0.198
same,NF-kB SEAP reporter activity,RAW-Dual [2]; [5],0.0699
same,NF-kB SEAP reporter activity,RAW-Dual [2]; [6],0.144
O=C(Nc1c(Cl)cncc1Cl)c1ccc(OC(F)F)c(OCC2CC2)c1,NF-kB SEAP reporter activity,RAW-Dual [1]; [7],1.6
same,NF-kB SEAP reporter activity,RAW-Dual [1]; [8],1.38
O=C(Nc1c(Cl)cncc1Cl)c1ccc(OC(F)F)c(OCC2CC2)c1 (library stock concentration (final ~1000-fold dilution): 10 mM),NF-kB SEAP reporter activity,RAW-Dual [2]; agonist: LPS (TLR4) 0.1 ug/mL,1.73
same,NF-kB SEAP reporter activity,RAW-Dual [2]; [4],2.39
same,NF-kB SEAP reporter activity,RAW-Dual [2]; [5],1.32
same,NF-kB SEAP reporter activity,RAW-Dual [2]; [6],1.62
CCOC(=O)OC(C)OC1=C(C(=O)Nc2ccccn2)N(C)S(=O)(=O)c2ccccc21 (configuration not stated) (library stock concentration (final ~1000-fold dilution): 10 mM),NF-kB SEAP reporter activity,RAW-Dual [2]; agonist: LPS (TLR4) 0.1 ug/mL,1.33
same,NF-kB SEAP reporter activity,RAW-Dual [2]; [4],1.08
same,NF-kB SEAP reporter activity,RAW-Dual [2]; [5],1.3
same,NF-kB SEAP reporter activity,RAW-Dual [2]; [6],1.08
CCOC(=O)OC(C)OC1=C(C(=O)Nc2ccccn2)N(C)S(=O)(=O)c2ccccc21 (configuration not stated),NF-kB SEAP reporter activity,RAW-Dual [1]; [7],0.924
same,NF-kB SEAP reporter activity,RAW-Dual [1]; [8],1.04
Cc1cccc(-c2[nH]c(CNc3ccccc3F)nc2-c2ccc3ncnn3c2)n1 (library stock concentration (final ~1000-fold dilution): 10 mM),NF-kB SEAP reporter activity,RAW-Dual [2]; agonist: LPS (TLR4) 0.1 ug/mL,2.41
same,NF-kB SEAP reporter activity,RAW-Dual [2]; [4],1.3
same,NF-kB SEAP reporter activity,RAW-Dual [2]; [5],1.12
same,NF-kB SEAP reporter activity,RAW-Dual [2]; [6],1.15
Cc1cccc(-c2[nH]c(CNc3ccccc3F)nc2-c2ccc3ncnn3c2)n1,NF-kB SEAP reporter activity,RAW-Dual [1]; [7],1.12
same,NF-kB SEAP reporter activity,RAW-Dual [1]; [8],1.62
C[C@@H]1O[C@@H](O[C@H]2[C@H](Oc3cc(O)c(C(=O)CCc4ccc(O)cc4)c(O)c3)O[C@H](CO)[C@@H](O)[C@@H]2O)[C@H](O)[C@H](O)[C@H]1O,NF-kB SEAP reporter activity,RAW-Dual [1]; [7],0.925
same,NF-kB SEAP reporter activity,RAW-Dual [1]; [8],0.994
C[C@@H]1O[C@@H](O[C@H]2[C@H](Oc3cc(O)c(C(=O)CCc4ccc(O)cc4)c(O)c3)O[C@H](CO)[C@@H](O)[C@@H]2O)[C@H](O)[C@H](O)[C@H]1O (library stock concentration (final ~1000-fold dilution): 10 mM),NF-kB SEAP reporter activity,RAW-Dual [2]; agonist: LPS (TLR4) 0.1 ug/mL,1.12
same,NF-kB SEAP reporter activity,RAW-Dual [2]; [4],1.1
same,NF-kB SEAP reporter activity,RAW-Dual [2]; [5],1.13
same,NF-kB SEAP reporter activity,RAW-Dual [2]; [6],1.1
CCCCNC(=O)NS(=O)(=O)c1ccc(C)cc1,NF-kB SEAP reporter activity,RAW-Dual [1]; [7],0.867
same,NF-kB SEAP reporter activity,RAW-Dual [1]; [8],1
CCCCNC(=O)NS(=O)(=O)c1ccc(C)cc1 (library stock concentration (final ~1000-fold dilution): 10 mM),NF-kB SEAP reporter activity,RAW-Dual [2]; agonist: LPS (TLR4) 0.1 ug/mL,1.45
same,NF-kB SEAP reporter activity,RAW-Dual [2]; [4],0.973
same,NF-kB SEAP reporter activity,RAW-Dual [2]; [5],0.993
same,NF-kB SEAP reporter activity,RAW-Dual [2]; [6],1.1
CCCC(C(=O)OCCN(CC)CC)(c1ccccc1)c1ccccc1.Cl,NF-kB SEAP reporter activity,RAW-Dual [1]; [9],1.04
same,NF-kB SEAP reporter activity,RAW-Dual [1]; [10],0.923
CCCC(C(=O)OCCN(CC)CC)(c1ccccc1)c1ccccc1.Cl (library stock concentration (final ~1000-fold dilution): 10 mM),NF-kB SEAP reporter activity,RAW-Dual [3]; agonist: LPS (TLR4) 0.1 ug/mL,0.633
same,NF-kB SEAP reporter activity,RAW-Dual [3]; [4],0.796
same,NF-kB SEAP reporter activity,RAW-Dual [3]; [5],0.481
same,NF-kB SEAP reporter activity,RAW-Dual [3]; [6],0.511
O=C(O)c1cc(-c2ccc(F)cc2F)ccc1O (library stock concentration (final ~1000-fold dilution): 10 mM),NF-kB SEAP reporter activity,RAW-Dual [2]; agonist: LPS (TLR4) 0.1 ug/mL,1.2
same,NF-kB SEAP reporter activity,RAW-Dual [2]; [4],0.94
same,NF-kB SEAP reporter activity,RAW-Dual [2]; [5],1.15
same,NF-kB SEAP reporter activity,RAW-Dual [2]; [6],0.95
O=C(O)c1cc(-c2ccc(F)cc2F)ccc1O,NF-kB SEAP reporter activity,RAW-Dual [1]; [8],1.02
Br.Cc1ccc(Sc2ccccc2N2CCNCC2)c(C)c1,NF-kB SEAP reporter activity,RAW-Dual [1]; [9],0.905
same,NF-kB SEAP reporter activity,RAW-Dual [1]; [10],1.43
